The campaign covered roughly 340,000 compounds. About 6,900 (2%) were called active. Cut-off read from the data, not from the text of the source: active = inhibition above about 30%; inactive = below that, where a call was filed. Only a part is listed here, and it is no random draw. Entries without a call were filed so in the source.
These compounds were tested against D(2) dopamine receptor (Homo sapiens) (UniProt P14416) (assay: HTS Assay for Allosteric Antagonists of the Human D2 Dopamine Receptor: Primary Screen for Antagonists). Conditions: HEK293 TREx D2 cells, calcium flux, dopamine EC80; at 10 µM; stronger effect = higher value.
UniProt P14416, sequence (P14416 whole entry, looked up): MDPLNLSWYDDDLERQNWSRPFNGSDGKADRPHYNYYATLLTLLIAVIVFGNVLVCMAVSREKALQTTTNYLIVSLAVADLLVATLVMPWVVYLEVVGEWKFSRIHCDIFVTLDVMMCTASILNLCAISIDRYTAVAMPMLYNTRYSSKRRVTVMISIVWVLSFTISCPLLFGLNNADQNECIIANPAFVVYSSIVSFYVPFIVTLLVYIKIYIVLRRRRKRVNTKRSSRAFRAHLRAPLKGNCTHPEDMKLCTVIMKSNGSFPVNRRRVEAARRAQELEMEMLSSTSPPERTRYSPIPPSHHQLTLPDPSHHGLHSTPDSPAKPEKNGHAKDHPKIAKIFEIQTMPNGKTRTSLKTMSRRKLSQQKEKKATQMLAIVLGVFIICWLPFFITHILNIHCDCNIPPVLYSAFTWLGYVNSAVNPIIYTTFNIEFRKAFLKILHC
How it was run: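 In this primary screen, negative modulation is detected by tracking calcium flux after an EC80 dopamine challenge in inducible HEK293 T-REx D2 cells preexposed to test compound for 180 s.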
For `COc1ccc(NC(=O)CCCNC(=O)c2ccc(Cl)cc2)c(OC)c1`, the inhibition was active: 30.3%.
`CCOc1ccc2nc(N3CCCC(C(=O)NCc4ccc(OC)cc4)C3)sc2c1` (stereo not given) gave an inhibition of 1.27%.
`CCOC(=O)N1CCc2c(sc(NCc3cccs3)c2C(=O)Nc2cc(OC)ccc2OC)C1` gave an inhibition of 4.17%.
`CC(C)c1ccc(Nc2cc(C(=O)NCc3cccs3)c3ccccc3n2)cc1` showed an inhibition of -2.61%.
Compound `CCOC(=O)c1nnn(C(CC)C(=O)Nc2c(C)cccc2C)c1C(=O)OCC` (stereo not given) has an inhibition of -10.1%.
Compound `CCN(CC)C(=O)CSc1nnc2[nH]c(=O)cc(C)n12` has an inhibition of 21.6%.
`CCc1cccc(NC(=O)c2c(C)oc3ncnc(N4CCCCC4)c23)c1` was tested, and the inhibition was 4.68%.
`COc1ccc(C(=O)c2oc3ccccc3c2NC(=O)c2nc(SC)ncc2Cl)cc1Cl` was tested, and the inhibition was -8.75%.
`O=C1CN(C(=O)COc2ccc(Cl)cc2Cl)C(c2ccc(F)cc2)c2cc(F)ccc2N1` (stereo not given) gave an inhibition of 0.329%.
`COc1cc(OC)c(NC(=O)c2cnc(N3CCCC3)nc2C)cc1Cl` gave an inhibition of -9.29%.
For `CCSc1ncc(Cl)c(C(=O)Nc2sc(C(C)=O)c(C)c2C(=O)OC)n1`, the inhibition was 1.58%.
With `COCCCN1C(=O)C(O)=C(C(C)=O)C1c1cccc(F)c1` (stereo not given) the inhibition was active: 36.8%.
`COc1ccc(CNC(=O)c2ccc(Sc3ccc(Cl)cc3)c(NC(C)=O)c2)c(OC)c1` showed an inhibition of -5.04%.
`CCCC(=O)Nc1cccc(-c2nc3cc(C)c(C)cc3o2)c1C` was tested, and the inhibition was 5.39%.
Work on `COC(=O)c1ccc2oc(=O)c(S(=O)(=O)c3ccc(C)cc3)cc2c1` yielded an inhibition of 20.3%.
With `CC(=O)Nc1ccc(NC(=O)CSc2nnc3c4cc(Br)ccc4n(C)c3n2)cc1` the inhibition was 5.08%.
With `Cc1ccc(CNC(=O)C2CCN(c3nc4ccc(C)cc4[nH]3)CC2)cc1` the inhibition was -3.62%.
`CC(=O)Nc1cccc(-c2nnc(SCC(=O)c3cc([N+](=O)[O-])ccc3Br)o2)c1` was tested, and the inhibition was 0.097%.
`CCCN1CCN(CCCNC(=O)c2cnn(-c3ccc(C)cc3)c2-n2cccc2)CC1` was tested, and the inhibition was 14.3%.
`CC(=O)c1cccc(Nc2c3c(nc4nc(-c5cccs5)nn24)CCCC3)c1` was tested, and the inhibition was -7.6%.
`COc1ccc(NC(=O)CCc2c(C)nc3c(-c4ccccc4)c(C)nn3c2C)cc1Cl` showed an inhibition of 24%.
For `Cc1ccc2c(c1)c1c(c(=O)n(-c3ccccc3C)c(=O)n1Cc1ccccc1F)n2C`, the inhibition was -0.635%.
Compound `Cn1c(C(=O)NCc2ccc(Cl)cc2)cc2c(=O)n(C)c3ccccc3c21` has an inhibition of -3.56%.
With `Cc1ccc(Cl)cc1NC(=O)Cn1c(=O)oc2cc(S(=O)(=O)N3CCCCCC3)ccc21` the inhibition was 7.85%.
`Cc1ccc(NC(=O)c2ccc(=O)n(CC(=O)Nc3cc(C)cc(C)c3)n2)cc1` was tested, and the inhibition was 6.94%.
`COc1ccc(-c2noc(C(C)NC(=O)c3ccco3)n2)cc1` (stereo not given) was tested, and the inhibition was 8.56%.
Compound `Cc1cccc2c1-c1sc(C(=O)NCCCN3CCN(c4cccc(Cl)c4)CC3)cc1CO2` has an inhibition of -19%.
`Fc1ccc(-n2ncc3c(Nc4ccc(Oc5ccccc5)cc4)ncnc32)cc1` gave an inhibition of -12.9%.
`Cc1ccc(OCC(=O)Nc2c(Cl)ccc3nsnc23)cc1C` was tested, and the inhibition was 10.8%.
`COc1cccc(C(=O)NC(c2ccc(Cl)cc2)c2cc(Cl)c3cccnc3c2O)c1` (stereo not given) was tested, and the inhibition was 8.58%.
`CCc1ccccc1NC(=S)N(CCN1CCOCC1)C1CCN(C(C)=O)CC1` was tested, and the inhibition was active: 30.9%.
For `CCn1cc(C(=O)NCc2ccc(Cl)cc2)c(=O)c2cc(S(=O)(=O)N(C)C)ccc21`, the inhibition was active: 32.1%.
`FC(F)(F)c1ccc(C2=Nc3ccccc3NC(c3cccs3)=N2)cc1` gave an inhibition of -4.29%.
Work on `COc1ccc(Nc2ncc(C(=O)Nc3cc(C)ccc3OC)c3ccccc23)cc1` yielded an inhibition of 17.2%.
In the case of `O=C(COc1ccc(F)cc1)Nc1cccc(OCc2cc(=O)n3ccccc3n2)c1`, the inhibition is reported as 6.5%.
`Cc1ccc(-n2nc(C)c3c(C)cc(=O)n(CC(=O)NCc4ccc(OC(C)C)cc4)c32)cc1` was tested, and the inhibition was -9.6%.
Compound `N#Cc1ccccc1Cn1c(=O)n(-c2ccc(F)c(Cl)c2)c(=O)c2sccc21` has an inhibition of 13.2%.
For `COc1ccc(CC(=O)NCCc2csc(-c3cccc(F)c3)n2)cc1OC`, the inhibition was -15.8%.
`Cc1ccc(C)c(NC(=O)Cn2c(=O)n(Cc3ccco3)c(=O)c3ccc(C(=O)NC4CCCC4)cc32)c1` was tested, and the inhibition was 10.9%.
Work on `O=C(C1CCN(c2ncnc3c2nc2n3CCCCC2)CC1)N1CCN(c2ccccc2)CC1` yielded an inhibition of -10.7%.
`Cc1ccc(S(=O)(=O)Nc2cc3c(C(=O)OCc4ccccc4)c(C)oc3c3ccccc23)cc1` gave an inhibition of 26.4%.
`O=C(C1=C(Nc2ccccc2)c2ccccc2S(=O)(=O)N1)c1ccccc1` was tested, and the inhibition was active: 39.7%.
For `COc1cccc(NC(=O)Cn2c(=O)n(C)c(=O)c3sc4c(c32)COC(C)(C)C4)c1`, the inhibition was active: 42.9%.
`CCOC(=O)c1ccccc1NC(=O)c1sc2ncn(CC)c(=O)c2c1C` gave an inhibition of 1.05%.
Compound `Cc1cc(C)cc(OCC(=O)NCC2(N3CCOCC3)CCCCC2)c1` has an inhibition of -4.37%.
`O=C(Cn1c(SCCOc2ccccc2Cl)nc2ccccc21)N1CCCCC1` gave an inhibition of 0.747%.
`CC(=O)c1cccc(NC(=O)c2ccc(-c3ccccc3[N+](=O)[O-])o2)c1` was tested, and the inhibition was active: 32.8%.
`COc1ccc(N2CCN(C(=O)c3nn(C)c4c3CSc3ccccc3-4)CC2)cc1` showed an inhibition of 12.5%.
In the case of `CCc1ccc(C(=O)c2cn(CC(=O)Nc3ccc(OC)c(Cl)c3)c3nc(C)ccc3c2=O)cc1`, the inhibition is reported as 3.43%.
In the case of `Cc1sc2nc(CSCC(=O)Nc3c(Cl)cccc3Cl)[nH]c(=O)c2c1C`, the inhibition is reported as active: 43.2%.
`CCCN(C(=O)NCc1noc2ccc(C)cc12)c1ccc(Cl)c(Cl)c1` was tested, and the inhibition was 6.83%.
`CC1=C(C(=O)Nc2cccc(C(F)(F)F)c2)C(c2ccccn2)n2ncnc2N1` (stereo not given) gave an inhibition of 13.8%.
`CCC(=O)Nc1ccccc1-c1nc2ccccc2n(CC(=O)c2ccc(Br)cc2)c1=O` was tested, and the inhibition was 2.02%.
In the case of `Cc1ccc(Cl)cc1NC(=O)Cn1cc(S(=O)(=O)Cc2ccccc2Cl)c2ccccc21`, the inhibition is reported as 3.12%.
Work on `COc1cccc(-c2nc(CS(=O)(=O)CC(=O)NCCCc3ccccc3)c(C)o2)c1` yielded an inhibition of -25.9%.
Compound `Cc1ccc(S(=O)(=O)N2CCCc3cc(NC(=O)c4ccc(C(C)(C)C)cc4)ccc32)cc1` has an inhibition of 3.76%.
`CCN(CC)c1ccc(NC(=O)c2sc3nc(-c4ccccc4)cn3c2C)cc1` gave an inhibition of -19.3%.
`CCOC(=O)c1cccc(NC(=O)NCc2ccc3c(c2)CCN3C(=O)CC)c1` gave an inhibition of 2.13%.
`CCCn1c2ccccc2c2cnn(CC(=O)NCCc3cc(OC)ccc3OC)c(=O)c21` was tested, and the inhibition was -9.92%.
With `Cc1nc(-c2ccc(F)cc2)sc1CCNC(=O)C(=O)Nc1ccc2c(c1)OCO2` the inhibition was 2.75%.

Reference: PubChem BioAssay AID485344 (National Center for Advancing Translational Sciences (NCATS), 2010)
Note: 0% is about no effect.
